Test results published in article PMC4336329 (PLoS ONE, 2015).
The campaign covered roughly 310,000 compounds. About 14,000 (4.5%) showed an effect of 50% or more. Effects have a minus sign here. The list shows a part of the results.

Target: human ether-à-go-go-related gene (hERG) potassium channel (human, UniProt Q12809)
Assay: primary screen, population patch clamp on CHO cells stably expressing hERG
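Note: peak tail current of the secondary pulse compared with the same well before compound.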

Sequence of human ether-à-go-go-related gene (hERG) potassium channel (Q12809 whole entry, looked up): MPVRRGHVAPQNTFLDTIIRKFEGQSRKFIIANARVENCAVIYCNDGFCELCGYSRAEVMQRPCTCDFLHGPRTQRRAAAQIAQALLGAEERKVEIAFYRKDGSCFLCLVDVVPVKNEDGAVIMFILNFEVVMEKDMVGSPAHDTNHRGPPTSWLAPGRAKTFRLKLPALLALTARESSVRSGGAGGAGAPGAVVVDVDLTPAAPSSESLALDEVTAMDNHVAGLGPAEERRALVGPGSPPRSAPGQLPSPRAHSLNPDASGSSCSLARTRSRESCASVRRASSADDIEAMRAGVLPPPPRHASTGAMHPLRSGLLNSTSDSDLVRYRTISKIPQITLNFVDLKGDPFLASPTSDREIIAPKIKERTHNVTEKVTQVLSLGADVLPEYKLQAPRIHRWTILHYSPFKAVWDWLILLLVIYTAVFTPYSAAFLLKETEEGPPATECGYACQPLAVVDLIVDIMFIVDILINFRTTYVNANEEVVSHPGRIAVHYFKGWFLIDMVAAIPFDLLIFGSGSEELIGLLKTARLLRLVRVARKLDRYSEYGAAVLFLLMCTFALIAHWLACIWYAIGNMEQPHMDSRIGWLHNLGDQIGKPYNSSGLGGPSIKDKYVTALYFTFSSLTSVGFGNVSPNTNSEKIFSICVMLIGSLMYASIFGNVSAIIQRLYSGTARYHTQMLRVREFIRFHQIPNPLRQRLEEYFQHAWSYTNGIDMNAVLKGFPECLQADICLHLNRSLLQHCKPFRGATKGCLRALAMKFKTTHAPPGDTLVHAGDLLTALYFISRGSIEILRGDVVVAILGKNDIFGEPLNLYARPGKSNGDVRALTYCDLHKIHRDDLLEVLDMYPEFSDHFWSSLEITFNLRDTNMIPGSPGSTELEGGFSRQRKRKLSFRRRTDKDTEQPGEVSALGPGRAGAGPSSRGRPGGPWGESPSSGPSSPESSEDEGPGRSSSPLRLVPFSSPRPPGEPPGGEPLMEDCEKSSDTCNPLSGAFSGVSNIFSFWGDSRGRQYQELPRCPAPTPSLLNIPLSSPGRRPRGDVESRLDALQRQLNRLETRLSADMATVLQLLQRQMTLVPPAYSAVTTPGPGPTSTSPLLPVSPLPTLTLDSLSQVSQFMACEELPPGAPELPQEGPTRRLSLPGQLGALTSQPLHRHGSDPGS

| SMILES | hERG current change (%, negative = inhibition) at 10uM [%] |
| --- | --- |
| O=S(=O)(c1ccc(F)cc1)N1CCCC1 | 10.9 |
| CCC(Sc1nc(C)cc(=O)[nH]1)C(=O)Nc1ccc(Cl)cn1 (stereo not drawn) | 0.299 |
| CN(C(=O)c1cc2c(=O)n3ccccc3nc2s1)C1CCCCC1 | -11.5 |
| O=C(Nc1ccccc1C(=O)N1CCOCC1)c1ccc(CSc2ccccc2)cc1 | -19.9 |
| Oc1ccc(C[C@@H]2CNCCN2CCCCC2CCCCC2)cc1 | -18 |
| O=C(CN1C(=O)S/C(=C\c2ccc(Cl)cc2)C1=O)NNC(=O)c1ccccc1O | -3.16 |
| CC1(C)CC(=O)C=C(Nc2ccc(F)cc2)C1 | -2.75 |
| Cc1ccc(NC(=O)C2(S(=O)(=O)c3ccc(Cl)cc3)CC2)cc1 | -22 |
| COC(=O)Cc1cc(=O)n2[nH]c(C)cc2n1 | 9.84 |
| CCc1nnc(NC(=O)Cn2c(=O)oc3ccccc32)s1 | 3 |
| C=CCn1c(SC2CCOC2=O)nc2sc(C)c(C)c2c1=O (stereo not drawn) | -11.2 |
| C=CCNC(=S)N/N=C/c1ccc(-c2ccc(OC)cc2)o1 | 37 |
| COc1ccccc1NC(=O)CN1CCC(c2nc3ccccc3[nH]2)CC1 | -43.6 |
| COc1ccc(/C=C2\N=C(SC)NC2=O)cc1 | 14 |
| Cn1cc(C(=O)N2CCc3ccccc3C2)c(=O)c2cc(S(=O)(=O)N3CCOCC3)ccc21 | 8 |
| COC(=O)[C@@H]1Cc2c([nH]c3ccccc23)C(C)(C)N1C(=O)CCl | 3.24 |
| C=C(C)CNC(=S)N1CCN(C(c2ccccc2)c2ccccc2)CC1 | 4.87 |
| c1coc(-c2ccnc(-c3ccncc3)n2)c1 | 8.51 |
| COc1ccc(NC(=O)C(c2ccccc2)N(C)C(=O)c2cnccn2)cc1 (stereo not drawn) | 1.47 |
| COc1cccc(CN(C)Cc2nc(C3CC3)no2)c1 | 28.6 |
| Cc1c(S(=O)(=O)NCc2ccccc2)c(=O)n(C)c(=O)n1C | 18.8 |
| NC(=O)C1CCN(C(=O)/C(=C/c2ccccc2)NC(=O)c2ccccc2)CC1 | 15.1 |
| COc1ccc(/C=C2\CCCCC2=O)cc1 | -6.19 |

| SMILES | hERG current change (%, negative = inhibition) at 10uM [%] |
| --- | --- |
| COC(=O)C1CCN(c2cc(=O)n(-c3ccccc3Cl)c(=O)[nH]2)CC1 | 3.53 |
| O=c1[nH]c2ccccc2c(O)c1SCCO | -39.9 |
| CCCCC(=O)Nc1ccc(C(=O)N2CCN(c3ccccc3OC)CC2)cc1 | -3.8 |
| Cc1cccc(C)c1NC(=O)C1CSC2(C)CCC(=O)N12 (stereo not drawn) | 15.1 |
| CCCCCCCCC/C(=N\O)c1ccccn1 | 11.6 |
| CCNc1nc(NC(C)C)nc(OCC)n1 | -13.3 |
| O=C(NC(=C(Cl)Cl)S(=O)(=O)c1ccc(Cl)cc1)c1ccccc1 | 3.23 |
| CCOC1=NC(C(=O)O)c2ccccc2/C(=C(/C)Cl)N1 (stereo not drawn) | 6.78 |
| CC1(CCc2ccc3c(c2)OCO3)NC(=O)c2ccccc2N1 (stereo not drawn) | -7.78 |
| C=CCSC(CC)(CC)C(N)=O | 3.1 |
| CCc1cc2c(SCC#N)ncnc2s1 | -6.66 |
| Cl.O=C(CN1CCN(Cc2ccccc2)CC1)Nc1ccc2c(c1)CCC2 | -47.6 |
| Cn1c(-c2ccc(Br)cc2)cnc1NCc1ccc(C#N)cc1.O=C(O)C(=O)O | -76.6 |
| Cc1ccnc(NC(=O)CCCOc2ccc(Cl)cc2C)c1 | 21.3 |
| Cc1cc(NC(=O)c2cccc(C(=O)Nc3cc(C)on3)n2)no1 | 4.26 |
| O=C(Nc1ccc2ccccc2c1)c1cccc([N+](=O)[O-])c1 | 13.8 |
| CCC(=O)NS(=O)(=O)c1ccc(N=NN2CCCCC2)cc1 | 17.1 |
| Cc1cc(-c2ccccc2C(=O)O)on1 | 17.6 |
| O=C(Cn1c(C(F)(F)F)nc2ccccc21)c1ccc(F)cc1 | 13.9 |
| O=C(O)CSc1nnc(COc2cccc3ccccc23)n1Cc1ccccc1 | 21.3 |
| CC(=O)c1ccc(N2CCN(C(=O)C(=O)c3cn(CC(=O)N4CCCCCC4)c4ccccc34)CC2)cc1 | 3.18 |
| CC(C)COC(=O)Nc1nnc(SCc2ccccc2F)s1 | 3.47 |
| COc1ccc(S(=O)(=O)Nc2ccc(S(=O)(=O)N3CCCC3)cc2)cc1 | -27.9 |

| SMILES | hERG current change (%, negative = inhibition) at 10uM [%] |
| --- | --- |
| COc1ccc(NC(=O)/C(C#N)=C\c2ccc(-c3cc(C(=O)O)ccc3C)o2)cc1 | 23.7 |
| Br.c1ccc(NC2=NCCCS2)cc1 | 4.95 |
| O=C(Nc1ccc(Cl)cc1)[C@@H]1[C@@H]2C(=O)N(c3ccc(Cl)cc3Cl)C(=O)[C@@H]2[C@H]2C=CC=NN21 | -22.5 |
| O=C(O)c1cccc(S(=O)(=O)N(Cc2ccccc2)c2cccc(C(F)(F)F)c2)c1 | 26.8 |
| CC(=O)Nc1sc(N/N=C\c2ccc(O)cc2)nc1-c1cccs1 | 9.3 |
| Cc1ccccc1NC(=O)/C=C/c1cccc(C(F)(F)F)c1 | -2.88 |
| O=C(Nc1cccc2ccccc12)N1CCN(c2ccc(F)cc2)CC1 | 16.1 |
| COc1ccc(C(=O)CN2C(=O)NC3(CCCCCC3)C2=O)cc1 | -6.35 |
| Brc1ccc(-c2nnc3c4ccccc4nc(N4CCOCC4)n23)cc1 | -8.42 |
| Cc1ccc(C)c(NC(=S)NC(NC(=O)Cc2ccccc2)C(Cl)(Cl)Cl)c1 (stereo not drawn) | 15.7 |
| Cc1ccc(-n2nnnc2SCC(=O)c2cc(C)n(-c3cc(C)on3)c2C)c(C)c1 | -9.42 |
| COc1ccc(CCNc2ncnc3c2[nH]c2cc(OC)c(OC)cc23)cc1OC | -6.41 |
| CCc1ccc(OCC(=O)NC(NC(=S)Nc2ccccc2OC)C(Cl)(Cl)Cl)cc1 (stereo not drawn) | 3.23 |
| CC(C)c1ccc(C2c3[nH]c4ccccc4c3C[C@H]3C(=O)N(c4ccccc4C(=O)N4CCC[C@H]4C(=O)O)C(=O)N23)cc1 (stereo partly drawn) | 5.97 |
| COc1ccc(S(=O)(=O)Nc2c(O)ccc3ccccc23)cc1OC | -10.2 |
| Cn1nccc1C(=O)NC(=S)Nc1sc2c(c1C#N)CCCCC2 | 17.6 |
| N/C(=N\OC(=O)c1ccccc1F)c1ccc([N+](=O)[O-])cc1 | 6.99 |
| CCCOP(=O)(OCCC)C(Nc1ccc(C(=O)O)cc1)c1ccccc1 (stereo not drawn) | 3.93 |
| Cl.c1ccc2c(CN3CCCCC3)csc2c1 | -15.5 |
| Cn1c(O)c(C=NCCCNC2CCCCC2)c(=O)n(C)c1=O | 12 |
| CCOC(=O)C1CCN(C(=O)CCc2c(C)nc3cc(-c4ccccc4)nn3c2C)CC1 | -78.5 |
| CCOC(=O)c1cnn2c(C(F)F)cc(C3CC3)nc12 | 9.56 |
| COc1ccc(OC)c(CN2CCN(C(=O)COc3cccc(C)c3)CC2)c1.O=C(O)C(=O)O | -46.7 |

| SMILES | hERG current change (%, negative = inhibition) at 10uM [%] |
| --- | --- |
| Cc1cc(Cl)ccc1N1C(=O)CC(SCCC(=O)O)C1=O (stereo not drawn) | 10.3 |
| S=c1[nH]nc(-c2ccc3ccccc3n2)n1-c1ccccc1Cl | 15.7 |
| OC(c1ccccc1)(c1ccccc1)c1ccn[nH]1 | 4.54 |
| Cc1c(NC(=O)CSC(=S)N2CCCC2)c(=O)n(-c2ccccc2)n1C | 3.94 |
| Cc1ccccc1NC(=O)c1oc(=O)c2ccccc2c1-c1ccccc1 | -1.57 |
| O=C(CSC1=NCCN1)C1COc2ccccc2O1 (stereo not drawn) | -16.8 |
| O=C(CSc1nnc(Cn2cnc3ccccc32)o1)Nc1cccc2ccccc12 | 11.7 |
| Cc1nn(Cc2cccc(C(=O)Nc3ccn(Cc4ccccc4F)n3)c2)c(C)c1[N+](=O)[O-] | 6.24 |
| Cc1noc(C)c1C(=O)OCC(=O)Nc1c(F)cccc1F | 27 |
| COc1ccccc1C(=O)Nc1ccc2c(c1)nc(CN1CCN(C(C)=O)CC1)n2C | -80 |
| Cc1c(CCC(=O)O)c(=O)oc2c(C)c3occ(-c4ccc(Br)cc4)c3cc12 | 18.8 |
| COc1ccc(N(C)S(=O)(=O)c2cccc(C(=O)OCC(=O)Nc3sc4c(c3C#N)CCCCC4)c2)cc1 | 10.8 |
| NC(=O)N/N=C/c1ccc(-c2ccc([N+](=O)[O-])cc2)o1 | -25.6 |
| CCOC(=O)c1[nH]c(C)c(C(=O)Nc2ccccc2F)c1C | -11.2 |
| CCO[C@@H]1OC(C(=O)NCc2nc3ccccc3[nH]2)=C[C@H](C)[C@H]1CCCO | -31.1 |
| Cc1nc2ccccc2c(=O)n1/N=C/c1ccccc1O | 5.01 |
| COc1ccc(C(=O)NCC(=O)N/N=C/C(C)=C/c2ccccc2)cc1OC | -1.63 |
| Cc1nc2ccc([N+](=O)[O-])cc2c(=O)n1Cc1ccc([N+](=O)[O-])cc1 | -76.8 |
| Cc1ccc(C(=O)OC(C)C(=O)NC2CCCCC2C)s1 (stereo not drawn) | -0.588 |
| O=C(O)c1cccc(COc2ccccc2Cl)c1 | 0.517 |
| O=C(CSc1ccccn1)Nc1cccc(S(=O)(=O)N2CCCC2)c1 | -13.2 |
